Test system: most common contaminants and pathogens found in skin and genital area
Experiment: Efficacy on contact as genital skin cleanser, summary of Table 1
Type: cell-based
Conditions: 0.01% aqueous solution; at 30 seconds

Compound: OCl [HOCl, hypochlorous acid]
- efficacy on contact: 99.99%

Reference: US20190125790A1, “USE OF HYPOCHLOROUS ACID AS A TOPICAL ANTIMICROBIAL” (BIIOSMART TECHNOLOGIES LLC, priority 2016, published 2019)
